Test results reported in publication PMC10668032.
The list shows a part of the results. At the low end of the ranking the order means little.

Target: SIX1-Q177R homeodomain (UniProt Q15475)
Experiment: universal protein binding microarray
Conditions: Universal all-10-mer PBM (8x60K, AMADID 030236), 300 nM GST-tagged protein, Alexa Fluor 488 anti-GST; buffer, salt, pH and temperature not stated; high values mean tight binding; most listed sequences are background and not binding sites; double strand, one strand shown

| Sequence | binding signal [E-score] |
| --- | --- |
| CCTAGAAA | -0.11 |
| TATTAATA | 0.112 |
| GTTCAATA | -0.12 |
| TAGGGATA | 0.0133 |
| GTAACACA | 0.223 |
| CCCGACGC | 0.151 |
| ACGGCCTC | -0.0201 |
| CGAGGCGA | -0.117 |
| ACGACGGA | -0.0158 |
| CAAATATC | -0.118 |
| AACATGAA | -0.159 |
| TAAGTCCA | -0.0628 |
| TCACATCA | -0.24 |
| CAACTGTC | -0.16 |
| TCTTGACA | 0.167 |
| CCAGGGCA | 0.0379 |
| GTGAAACA | 0.0907 |
| TGGGCTAA | -0.0864 |
| AAGATCCC | 0.0117 |
| AAAACGCA | 0.0963 |
| CTAATAAG | -0.18 |
| GTCCTGCA | -0.0061 |
| GGGGCGAA | -0.137 |
| GTTCTACA | 0.239 |
| CGGTCGGA | 0.0239 |

| Sequence | binding signal [E-score] |
| --- | --- |
| AGCGGGAG | -0.233 |
| CGAATCCC | 0.0729 |
| TGATAACA | 0.153 |
| GCAAAGGA | -0.0149 |
| GAGGTGGC | -0.214 |
| ATATGTTC | 0.0719 |
| AGTGTTTA | 0.296 |
| GTTCACGA | 0.0352 |
| AGTAAGCG | 0.103 |
| GAATATGA | -0.172 |
| CCCGGTCA | 0.0247 |
| CAAGCCAC | 0.0319 |
| CAGTGGAC | -0.208 |
| GTTCCAAC | -0.0199 |
| CAGCGCCG | -0.118 |
| ATACCGTG | 0.301 |
| ATTGCGAA | -0.00749 |
| CTTCTCCC | -0.202 |
| AAAGCACA | -0.0697 |
| GTTAAACA | 0.146 |
| AGTTACAA | 0.038 |
| AGTTAAAG | -0.00374 |
| CGAAGCGA | -0.0284 |
| CAATAACC | -0.164 |
| CCGATCGG | -0.0749 |

| Sequence | binding signal [E-score] |
| --- | --- |
| ACTCACTA | -0.0869 |
| ACAATTCA | 0.053 |
| TCCCTCCA | -0.194 |
| AATGGTTG | -0.171 |
| ACGATAGT | 0.157 |
| CGTCACAC | 0.288 |
| ATGCATAA | -0.168 |
| GTTCTCCA | -0.191 |
| AAGATGGA | -0.107 |
| CAAACCGG | -0.0474 |
| CCCACTCA | 0.148 |
| AGATTCTC | -0.1 |
| CTGGTCAA | -0.0008 |
| CAGACTCC | -0.128 |
| CTTGCAAA | -0.235 |
| AACGGATC | 0.184 |
| ATCGTCAA | 0.134 |
| GACCGGGC | -0.0031 |
| CTCACCCA | 0.0665 |
| CGTTCTGC | -0.146 |
| CAACGACG | -0.0358 |
| CGCGTAAC | -0.0289 |
| CATCTCGG | -0.0625 |
| GCCCAGAA | -0.312 |
| AATACATG | -0.111 |

| Sequence | binding signal [E-score] |
| --- | --- |
| AAGTAGAC | -0.156 |
| ATGGCGAG | -0.0298 |
| CCAGACCA | -0.11 |
| GGAATACC | 0.00038 |
| TACGCAGA | -0.0348 |
| CCTATACA | 0.142 |
| GGACCTAC | 0.0208 |
| CCTCCCCC | -0.0748 |
| CTGAGCGC | -0.0844 |
| CAATTGCG | -0.283 |
| AGCATCGG | -0.241 |
| AATTCCTA | -0.0786 |
| AGGCCGAG | -0.0412 |
| GCACCAGC | 0.142 |
| CACTAGGA | 0.135 |
| GAGACGAC | 0.0983 |
| CCGTCGTA | -0.0385 |
| GCCGAAAC | 0.02 |
| ACAATGAC | 0.111 |
| CATTAATA | -0.11 |
| CGCTACAC | 0.402 |
| CAGCCTCG | -0.197 |
| GCTCCACC | -0.0871 |
| CGAAACGC | -0.144 |
| CAAAATTC | -0.0559 |

| Sequence | binding signal [E-score] |
| --- | --- |
| CCCGAGCG | 0.078 |
| CTAAAGAA | -0.162 |
| CGAGCACA | 0.0753 |
| ACATTGTA | -0.213 |
| CGGATACA | 0.294 |
| ATGGCCCA | -0.303 |
| AGCGGAAC | -0.073 |
| AGTCACCC | -0.00406 |
| CCGGTGCA | 0.203 |
| GAGTATAA | -0.0834 |
| GCTCAAGA | -0.24 |
| GGAGTCAA | 0.2 |
| GGGTTATA | 0.23 |
| GGGCGCAA | -0.0493 |
| ATTAACTA | -0.0769 |
| ACACACGT | 0.27 |
| CTAAATGC | -0.112 |
| CCGGATAA | 0.132 |
| AGTCGGTC | -0.162 |
| CATGGAGA | 0.0319 |
| CATTACAG | 0.039 |
| CGAGACTA | -0.00551 |
| AGTTTAGA | -0.0508 |
| GCTACAAC | -0.168 |
| GCCTGTAA | -0.021 |

| Sequence | binding signal [E-score] |
| --- | --- |
| ACCGCTGC | 0.0752 |
| CTGAAACC | 0.0356 |
| CGCCGTCC | -0.206 |
| ATACCGAG | -0.0446 |
| TCGATACA | 0.198 |
| CCATTAGG | -0.0946 |
| GAGAATCA | -0.203 |
| CGTGCCAC | -0.0208 |
| GACTTGGC | -0.271 |
| AAGAGCTC | -0.185 |
| TCAAGAGA | -0.179 |
| AAATGTGG | -0.107 |
| CAGTAAAG | -0.195 |
| CTTGATTA | -0.067 |
| ATCTTTAA | -0.19 |
| AGTACTAT | -0.0407 |
| CTACTACC | 0.0639 |
| CGCGAACA | 0.143 |
| CCCCGAGG | 0.213 |
| AGCACCCG | 0.262 |
| AGTTATAA | -0.0227 |
| CAGCTCGA | -0.197 |
| CAATACAC | 0.371 |
| ACGCACCT | 0.123 |
| AGAAGGGG | 0.223 |

| Sequence | binding signal [E-score] |
| --- | --- |
| CTAAGCAA | -0.351 |
| ATATTTAC | 0.104 |
| GTATAGCA | 0.0673 |
| CAACATGG | -0.0245 |
| TTGTAAAA | -0.135 |
| AAAAATAG | -0.165 |
| ACTTCTAA | -0.247 |
| ACCCGGGT | 0.377 |
| AGACTACA | 0.0902 |
| AACATCAA | -0.204 |
| GCCAGTCC | -0.174 |
| CTTCGGGC | 0.0814 |
| GCGCGAAA | 0.0135 |
| TCCTGCAA | 0.0571 |
| GAATAGCC | -0.24 |
| ACACGAGT | 0.401 |
| CGCGCCGA | -0.0159 |
| ACACGATC | 0.385 |
| CGAGCCAA | -0.0626 |
| GATTCTTA | -0.237 |
| CGAGTCAC | 0.196 |
| GAAAATCA | -0.0977 |
